From PubChem BioAssay AID2546 (National Center for Advancing Translational Sciences (NCATS), 2010)
Hit rate of the full screen: of about 310,000 compounds, about 11,000 (3.5%) were called active. Inconclusive results, whose numbers are uncertain, are shown with a selection of clear calls. Calls follow the shape of the dose curve; as a rule, active = well fitted inhibition curve with a large enough effect; inconclusive = small, poorly fitted or top-dose-only effect, or effect the other way; inactive = flat fitted curve, though single readings scatter. Potencies of inconclusive entries are left out as doubtful fits.

assay: VP16 counterscreen qHTS for inhibitors of ROR gamma transcriptional activity; conditions: Drosophila S2 Gal4-VP16 UAS-luciferase, luminescence, 20 h; activity, negative = inhibition: at 53.6 µM (top of the series);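 also: Gal4-VP16 expression switched on by copper sulfate through the metallothionein promoter; nearly all actives have a fitted effect of over 50% in size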
% is scaled to controls: 0 for no effect and ±100 for the full control effect; potency is read from the fitted curve at half-maximal effect; tags tell the direction and shape of the fitted curve.

Structure (SMILES)	activity, negative = inhibition	Potency
COCCN1CN(S(=O)(=O)c2ccccc2)c2nc3ccccc3nc21	inactive: -7.86%	
COc1cc(Nc2cc(C)nc3nc(C)nn23)cc(OC)c1OC		active: 12.6 µM
NC(=O)c1cc(S(=O)(=O)NCCCc2ccccc2)cs1		inconclusive [inhibitor, single point]
CCOC(=O)Cc1csc(N/N=C\c2cccc(Br)c2)n1		inconclusive [inhibitor, single point]
COc1ccc(-c2csc(NC(=O)c3ccc(N4C(=O)CCC4=O)cc3)n2)cc1OC	inactive: -0.532%	
Cc1cccc(NC(=S)Nc2ccc(Br)cc2)c1		inconclusive [inhibitor, single point]
CCCCN1CNC(=S)N(c2cc(C)ccc2C)C1		active: 10 µM
CCOc1ccccc1C(C(=O)NC1CCCC1)N(Cc1ccco1)C(=O)CNC(=O)c1ccco1 (stereo unspecified)		inconclusive [activator, partial curve]
Oc1ccc(-c2nnc(SCc3ccccc3)o2)cc1		inconclusive [inhibitor, single point]
CCOc1ccc(S(=O)(=O)N2Cc3ccccc3CC2C(=O)NCCCn2ccnc2)cc1 (stereo unspecified)	inactive: -2.6%	
O=[N+]([O-])c1ccc(NCc2ccccc2)nc1		inconclusive [activator, single point]
CS(=O)(=O)N(CC(=O)NCc1ccco1)Cc1ccc(Cl)cc1	inactive: 9.19%	
C/C(=N\NC(=O)c1cc(-c2ccc(C)s2)[nH]n1)c1ccco1		inconclusive [activator, single point]
CCCCn1c(=O)nc2n(-c3ccccc3C)c3ccccc3cc-2c1=O	inactive: -13%	
Nc1c(C(=O)NCc2ccc(F)cc2)c2nc3ccccc3nc2n1CCCN1CCOCC1		inconclusive [inhibitor, single point]
COc1ccc(C(=O)Nc2nnc(SCC(=O)NC3CCCC3)s2)c(OC)c1		inconclusive [inhibitor, full curve]
O=C(CCCCCn1c(=S)[nH]c2cc3c(cc2c1=O)OCO3)N1CCN(c2ccc(F)cc2)CC1		inconclusive [inhibitor, partial curve]
CCOc1cc(/C=N/Nc2nc(N3CCCC3)nc(N3CCCC3)n2)ccc1O		active: 5.01 µM
COCCCNC(=S)NC(=O)c1ccccc1		inconclusive [inhibitor, single point]
c1ccc(Oc2nc(NC3CCCCC3)c3[nH]cnc3n2)cc1		inconclusive [inhibitor, single point]
COc1cc(/C=C2\COC/C(=C\c3ccc(O)c(OC)c3)C2=O)ccc1O		inconclusive [inhibitor, single point]
